Sequences with one replicate were seen in a single cluster, so their values are uncertain.
System: ATP
Assay: switch fluorescence ratio, 500 uM ATP over buffer (Cy3 cluster intensity, sum of 5 cycles each) (fold (ratio)); higher = stronger signal-on switching upon ATP binding; sequences stand for … in TCGTCGGCAGCGTCAGATGTGTATAAGAGACAGTTTTTTTTTTTTTTTTTTTTTTTTT…TC
Settings: aptamer strand: ATP DNA aptamer (quencher-CACCTGGGGGAGTATTGCGGAGGAAGG + anchor), 100 nM annealed; ATP concentration: 500 uM; one replicate
Summary of the method: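 Clusters carrying Cy3-labelled switching strands on a modified Illumina MiSeq flow-cell were annealed to 100 nM quencher-labelled ATP aptamer and imaged in selection buffer. They were imaged again after 15 min with 500 uM ATP at 22 °C, over five buffer/ATP cycles with NaOH stripping and re-annealing in between. For each cluster, the fluorescence ratio is the summed Cy3 intensity of the target cycles divided by that of the buffer cycles, averaged per switch-domain sequence. Clusters outside 100-1000 RFU were left out.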
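Further: ATP exposure 15 min at 22 °C before imaging.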

| Sequence | switch fluorescence ratio |
| --- | --- |
| GCTGATATGA | 0.993 |
| TCACATGGGG | 1.01 |
| CGAAAGGCCC | 0.957 |
| TACTCACTAC | 1.44 |
| GGTCTACTAA | 0.999 |
| AAATAGAACA | 1.05 |
| ACTGGGCCTA | 1.01 |
| CAGTTTAAGA | 1.04 |
| CAGTGTGGGG | 0.983 |
| TTGCTGCCGT | 0.993 |
| AGAGAGCTTA | 0.987 |
| GTACTTAGCG | 1.04 |
| CATTACAACG | 1.03 |
| GGGACATGAC | 1.08 |
| AGATCTGGTT | 0.992 |
| TATAGGCTGT | 1 |
| GAATCTGTTC | 1.02 |
| TATTGGAGCT | 0.984 |
| GTGGGAGCCA | 0.993 |
| AGTCGGTCAT | 1.04 |
| ACCCGAGAGC | 1.13 |
| TTTGGTGTGG | 0.966 |
| AGTCGTGTGA | 1.02 |

| Sequence | switch fluorescence ratio |
| --- | --- |
| TGTCGTCGGT | 1.01 |
| TGACGGAGTT | 1.05 |
| GGTGAAAAAC | 1.02 |
| GTGCGTGCGA | 0.987 |
| GGTTCCTGC | 1.01 |
| ACTGCGCTT | 1.6 |
| TTTTATTGT | 1.1 |
| CTGGTACACG | 0.923 |
| ATTGAGAGTA | 0.99 |
| ATGAATACCA | 1.01 |
| CACAGGTCTG | 1.02 |
| TGTCGCGTTT | 1.04 |
| ACTTCTCTCG | 1.15 |
| TGCGGGTCG | 1.04 |
| GGGGGCTGTG | 1.12 |
| ATCGTGCTGT | 1.02 |
| TAGGGCCGTC | 1.02 |
| GGCGTTGAAT | 1.05 |
| CAACAATTTA | 1.03 |
| GCTACACACA | 1.3 |
| GCCATTGGTA | 1.01 |
| GTTGGCCCTG | 0.991 |
| ACTATATATC | 1.04 |

| Sequence | switch fluorescence ratio |
| --- | --- |
| ATCTAATGAG | 0.993 |
| GTTAATCAAA | 1 |
| CACCTGCTTC | 1.11 |
| TGTTGACCG | 0.949 |
| AGCGGTACTT | 1.48 |
| CCAGTTAT | 1.01 |
| TCCGCGCTGG | 1.59 |
| CTTGCTGTTT | 1.04 |
| ATGCCAACCC | 1.06 |
| CTCGTTCTTG | 1.01 |
| CAGTGTCTT | 0.983 |
| GGGGGTGCGT | 0.938 |
| TCATTTTTTC | 1.02 |
| CTGATAAGTA | 0.977 |
| TGGTTTAGCA | 0.986 |
| TCAGTGCCGT | 0.988 |
| GCCGCGGACC | 1.16 |
| CATATTCTAA | 0.948 |
| CTTATGTTCC | 1.01 |
| ACTCTCATCC | 1.05 |
| TTCCTCTGG | 1.26 |
| AAGGGGGCT | 1.01 |
| CACCTACTTT | 1.27 |

| Sequence | switch fluorescence ratio |
| --- | --- |
| TCGTGCTGT | 0.996 |
| TGCCGTGGTT | 0.962 |
| TCTCGTACCC | 1.02 |
| TCAAGTCTAC | 1.09 |
| GCCCGAGCCA | 1.08 |
| ATCCGGCCTA | 1.1 |
| CCACACATCT | 1.04 |
| CGACTTCTCC | 1.24 |
| AACCAGGGTA | 1.04 |
| TTGCTACGGC | 1.06 |
| CACGGGGAGG | 0.997 |
| CACATCTGGA | 0.965 |
| CTCAGAGCAG | 1.24 |
| GGACTGACCC | 1.14 |
| CTTATTAAAT | 0.987 |
| CGGATTATGT | 1.01 |
| CGGATAAAGC | 0.982 |
| AACTTTGAGC | 1.04 |
| AGGACTAAAA | 1.02 |
| GGGGATAGTT | 0.948 |
| CTGATACCAC | 1.13 |
| CTGGGACCCG | 0.956 |
| AGGAAGTGTA | 1.01 |

| Sequence | switch fluorescence ratio |
| --- | --- |
| TCCTTAATCT | 1.01 |
| GAGTTCGGAT | 0.983 |
| CATAATGGTA | 0.951 |
| CGGTGAGAAT | 1.07 |
| ATTTCTTGGA | 0.954 |
| GATGCTTGTT | 1.03 |
| CCAGACCCCA | 1.05 |
| GCCGTAGCGT | 1.06 |
| GAGAGGTGAT | 1 |
| CGGGTTAATC | 1 |
| TCTCAGATA | 0.937 |
| TTATAACGGC | 1.06 |
| AAACTTATCA | 1.01 |
| AAGTGCGTTG | 0.969 |
| TTAGACCCAT | 0.991 |
| GAGGTATACA | 1.2 |
| AAGCGTTCGG | 1.03 |
| ATGAATTAGG | 0.966 |
| TATCGAAATA | 1.06 |
| CTATCAGCCA | 0.987 |
| GGTATGGACC | 1.02 |
| CTGGACATAT | 1.01 |
| CAGCTGATTG | 1.03 |

| Sequence | switch fluorescence ratio |
| --- | --- |
| CAAGCGAATA | 1.19 |
| ATTACCATTG | 1.01 |
| TCCAACGTGC | 1.91 |
| ATATCAGGC | 1 |
| TTGAGACCCC | 0.985 |
| AAGGTGACAG | 0.979 |
| TTGATTAACC | 1.03 |
| TCGACACCGA | 1.08 |
| TAGGTCGTTG | 0.966 |
| ATCCTTACCG | 1.19 |
| ATAAATAACG | 1.01 |
| TGCTGCCGGA | 1.02 |
| AACATTGGAT | 1 |
| CCTAGGTGGC | 1.64 |
| GCACGCAATG | 2.65 |
| TCGTAGGCAC | 1.04 |
| GCATCACTTA | 1.09 |
| TCGTACAGGC | 1.03 |
| AGGGAAGGTC | 1.04 |
| TCTCTGAGCC | 1.03 |
| GTAGGTAAAG | 0.997 |
| GCGGTAGTGG | 0.976 |
| CGTGACGTCA | 0.978 |

| Sequence | switch fluorescence ratio |
| --- | --- |
| ACCTACACGG | 1.29 |
| GCCGTCAGTG | 0.986 |
| GCGTTTGAGC | 0.98 |
| CGCAGAGGCA | 1.01 |
| CGATGCGACT | 1.06 |
| AGCGATTCAT | 1.02 |
| GCTGGCTTAA | 0.978 |
| TGGACGTTTT | 0.994 |
| TCACAGAGGA | 1 |
| GCGGAGGCAT | 1.03 |
| GCAAATGTGG | 1.01 |
| TTGAACGAAG | 1.01 |
| CTAGTCAAAT | 0.942 |
| GTACAGAGCG | 1.02 |
| CAATCTCTCG | 1.01 |
| GTTGTAGGGC | 1.02 |
| TTCGCCGGGC | 1.68 |
| GCTCGACGGT | 1 |
| GGCTCAAGG | 0.984 |

Source: the supplement of paper PMC10126150
